Source: the supplement of paper PMC4967469
By IC50 is meant the dose at which the fit gives 50% viability; a limit (>, <) means that the fit lies beyond the doses tested. AUC is the area under the same curve over the 256-fold range up to the top dose, as a fraction: 1 means no effect, lower means more sensitive. For part of these data: A top dose marked as inferred was calculated from the reported fits. For part of these data: Drugs with an entry number were screened twice under separate entries, and the two screens often disagree.

How the values were obtained:
Test in all cases: Viability of human cancer cell lines after 72 h of drug (GDSC screen)
KU-55933 = compound: O=c1cc(-c2cccc3c2Sc2ccccc2S3)oc(N2CCOCC2)c1 [KU-55933]; details: top dose 10 µM
Description: (§1)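 Human cancer cell lines in 384-well plates, medium with 10% serum, drug for 72 h over a 256-fold dose range (nine 2-fold or five 4-fold steps up to the top dose). Adherent lines were fixed and stained with the nucleic acid dye Syto60, suspension lines read with resazurin; signal relative to control wells, capped at 0 and 100%. One two-parameter sigmoid per drug and line, fitted in a mixed model over all curves with the slope shared within a line.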

CHIR-99021 = compound: Cc1cnc(-c2cnc(NCCNc3ccc(C#N)cn3)nc2-c2ccc(Cl)cc2Cl)[nH]1 [CHIR-99021]
Description: as §1

Cytarabine = compound: Nc1ccn([C@@H]2O[C@H](CO)[C@@H](O)[C@@H]2O)c(=O)n1 [Cytarabine]; details: top dose 2 µM
Description: as §1

Thapsigargin = compound: C/C=C(/C)C(=O)O[C@H]1C(C)=C2[C@H]([C@@H]1OC(=O)CCCCCCC)[C@@](C)(OC(C)=O)C[C@H](OC(=O)CCC)[C@@]1(O)[C@H]2OC(=O)[C@@]1(C)O [Thapsigargin]; details: top dose 0.512 µM; top dose inferred
Description: as §1

CMK = compound: Cc1ccc(-c2c(C(=O)CCl)n(CCCO)c3ncnc(N)c23)cc1 [CMK]; details: top dose 4 µM; top dose inferred
Description: as §1

QL-X-138 = compound: C=CC(=O)Nc1cc(-n2c(=O)ccc3cnc4ccc(-c5cn[nH]c5)cc4c32)ccc1C [QL-X-138]; details: top dose 10.24 µM; top dose inferred
Description: as §1

(5Z)-7-Oxozeaenol = compound: COc1cc(O)c2c(c1)/C=C/C[C@H](O)[C@H](O)C(=O)/C=C\C[C@H](C)OC2=O [(5Z)-7-Oxozeaenol]; details: top dose 10 µM; top dose inferred
Description: as §1

ABT-869 = compound: Cc1ccc(F)c(NC(=O)Nc2ccc(-c3cccc4[nH]nc(N)c34)cc2)c1 [ABT-869]; details: top dose 1.024 µM; top dose inferred
Description: as §1

GSK269962A = compound: CCn1c(-c2nonc2N)nc2cnc(Oc3cccc(NC(=O)c4ccc(OCCN5CCOCC5)cc4)c3)cc21 [GSK269962A]; details: top dose inferred
Description: as §1

CP466722 = compound: COc1cc2ncnc(-n3nc(-c4ccccn4)nc3N)c2cc1OC [CP466722]; details: top dose 16 µM; top dose inferred
Description: as §1

ABT-888 = compound: C[C@]1(c2nc3c(C(N)=O)cccc3[nH]2)CCCN1 [ABT-888]; details: top dose 5 µM; top dose inferred
Description: as §1

Zibotentan = compound: COc1nc(C)cnc1NS(=O)(=O)c1cccnc1-c1ccc(-c2nnco2)cc1 [Zibotentan]; details: top dose 20 µM; top dose inferred
Description: as §1

MPS-1-IN-1 = compound: COc1cc(N2CCC(O)CC2)ccc1Nc1cc(Nc2ccccc2S(=O)(=O)C(C)C)c2cc[nH]c2n1 [MPS-1-IN-1]; details: top dose 20 µM; top dose inferred
Description: as §1

[1] = top dose 2.56 µM, screen: GDSC drug entry 154
[2] = top dose 10 µM, screen: GDSC drug entry 1241, top dose inferred
[3] = top dose 2.5 µM, screen: GDSC drug entry 127
[4] = top dose 5 µM, screen: GDSC drug entry 1192

| Cell Line | AUC (KU-55933) | IC50 (KU-55933) | AUC (CHIR-99021; [1]) | IC50 (CHIR-99021; [1]) | AUC (CHIR-99021; [2]) | IC50 (CHIR-99021; [2]) | AUC (Cytarabine) | IC50 (Cytarabine) | AUC (Thapsigargin) | IC50 (Thapsigargin) | AUC (CMK) | IC50 (CMK) | AUC (QL-X-138) | IC50 (QL-X-138) | AUC ((5Z)-7-Oxozeaenol) | IC50 ((5Z)-7-Oxozeaenol) | AUC (ABT-869) | IC50 (ABT-869) | AUC (GSK269962A; [3]) | IC50 (GSK269962A; [3]) | AUC (GSK269962A; [4]) | IC50 (GSK269962A; [4]) | AUC (CP466722) | IC50 (CP466722) | AUC (ABT-888) | IC50 (ABT-888) | AUC (Zibotentan) | IC50 (Zibotentan) | AUC (MPS-1-IN-1) | IC50 (MPS-1-IN-1) |
| --- | --- | --- | --- | --- | --- | --- | --- | --- | --- | --- | --- | --- | --- | --- | --- | --- | --- | --- | --- | --- | --- | --- | --- | --- | --- | --- | --- | --- | --- | --- |
| KS-1 (glioma, adherent) | 0.95 | > 10 µM | 0.958 | > 2.56 µM | 0.947 | > 10 µM | 0.888 | > 2000 nM | 0.263 | 5.58 nM | 0.692 | 0.994 µM | 0.486 | 581 nM | 0.556 | 924 nM | 0.979 | > 1020 nM | 0.219 | 18.6 nM | 0.46 | 236 nM | 0.691 | 3.97 µM | 0.97 | > 5 µM | 0.977 | > 20 µM | 0.838 | 18.7 µM |
| KU812 (chronic myeloid leukaemia, suspension) | 0.946 | > 10 µM | 0.951 | > 2.56 µM | 0.943 | > 10 µM | 0.719 | 490 nM | 0.168 | 3.54 nM | 0.873 | 3.28 µM | 0.619 | 1320 nM | 0.462 | 497 nM | 0.984 | > 1020 nM | 0.91 | > 2500 nM | 0.676 | 920 nM | 0.643 | 2.39 µM | 0.978 | > 5 µM | 0.986 | > 20 µM | 0.974 | > 20 µM |
| KY821 (leukaemia, suspension) | 0.9 | > 10 µM | 0.992 | > 2.56 µM | 0.99 | > 10 µM | 0.902 | > 2000 nM | 0.316 | 10.6 nM | 0.835 | 2.17 µM | 0.872 | 7690 nM | 0.732 | 2580 nM | 0.991 | > 1020 nM | 0.989 | > 2500 nM | 0.99 | > 5000 nM | 0.87 | 11.8 µM | 0.989 | > 5 µM | 0.987 | > 20 µM | 0.919 | > 20 µM |
| L-428 (Hodgkin lymphoma, suspension) | 0.958 | > 10 µM | 0.992 | > 2.56 µM | 0.991 | > 10 µM | 0.905 | > 2000 nM | 0.986 | > 512 nM | 0.936 | > 4 µM | 0.888 | 9100 nM | 0.86 | 6820 nM | 0.991 | > 1020 nM | 0.993 | > 2500 nM | 0.987 | > 5000 nM | 0.778 | 5.69 µM | 0.992 | > 5 µM | 0.746 | 5.68 µM | 0.993 | > 20 µM |
| L-540 (Hodgkin lymphoma, suspension) | 0.965 | > 10 µM | 0.985 | > 2.56 µM | 0.965 | > 10 µM | 0.868 | 1490 nM | 0.618 | 65 nM | 0.942 | > 4 µM | 0.742 | 2860 nM | 0.721 | 2440 nM | 0.99 | > 1020 nM | 0.923 | > 2500 nM | 0.796 | 2050 nM | 0.717 | 3.79 µM | 0.987 | > 5 µM | 0.988 | > 20 µM | 0.905 | > 20 µM |
| LAMA-84 (chronic myeloid leukaemia, suspension) | 0.88 | > 10 µM | 0.983 | > 2.56 µM | 0.985 | > 10 µM | 0.387 | 60.9 nM | 0.454 | 24 nM | 0.965 | > 4 µM | 0.608 | 1270 nM | 0.905 | > 10000 nM | 0.987 | > 1020 nM | 0.921 | > 2500 nM | 0.959 | > 5000 nM | 0.586 | 1.73 µM | 0.929 | > 5 µM | 0.883 | > 20 µM | 0.912 | > 20 µM |
| LAN-6 (neuroblastoma, adherent) | 0.985 | > 10 µM | 0.985 | > 2.56 µM | 0.93 | > 10 µM | 0.88 | > 2000 nM | 0.844 | 475 nM | 0.843 | 3.66 µM | 0.882 | > 10200 nM | 0.728 | 3200 nM | 0.947 | > 1020 nM | 0.98 | > 2500 nM | 0.926 | > 5000 nM | 0.862 | > 16 µM | 0.982 | > 5 µM | 0.985 | > 20 µM | 0.798 | 11.6 µM |
| LB373-MEL-D (melanoma, adherent) | 0.99 | > 10 µM | 0.967 | > 2.56 µM | 0.912 | > 10 µM | 0.873 | 1850 nM | 0.476 | 27.5 nM | 0.962 | > 4 µM | 0.968 | > 10200 nM | 0.684 | 2020 nM | 0.99 | > 1020 nM | 0.987 | > 2500 nM | 0.989 | > 5000 nM | 0.955 | > 16 µM | 0.99 | > 5 µM | 0.989 | > 20 µM | 0.951 | > 20 µM |
